These results are taken from the supplement of paper PMC8183993.

Structures can show the parent of a compound that is named as a salt. ± gives the standard deviation of the averaged measurements. In all, about 3,100 compounds were measured (“mean cytoplasmic OPP incorporation (global translation) relative to DMSO”: median about 100, lowest 2% from about 56 on). This is one part of the list.

The assay has as its system U2OS. The assay can be described thus: mean cytoplasmic OPP incorporation (global translation) relative to DMSO (% of DMSO); higher = more protein synthesis. Particulars: 10 µM; 24 h. The procedure:
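Primary image-based screen in U2OS cells: compounds at 10 uM for 24 h, then a 1 h o-propargyl-puromycin (OPP) pulse, click labelling, and high-throughput microscopy. Mean cytoplasmic OPP intensity and nuclei count were normalised to DMSO wells within each plate (DMSO = 100) and averaged over triplicate plates.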
For `COc1c(O[C@@H]2O[C@H](CO)[C@@H](O)[C@H](O)[C@H]2O)cc2c(c1OC)-c1ccc(SC)c(=O)cc1[C@@H](NC(C)=O)CC2` [Thiocolchicoside], the “mean cytoplasmic OPP incorporation” value was 96.4.
Turning to `O=C(CCCCCCNC(=O)c1cnc(N(c2ccccc2)c2ccccc2)nc1)NO` [Rocilinostat (ACY-1215)], the “mean cytoplasmic OPP incorporation” value is 65.8.
With `O=c1ncccn1[C@@H]1O[C@H](CO)[C@@H](O)[C@H]1O` [Zebularine], the “mean cytoplasmic OPP incorporation” value worked out at 99.5 ± 2.7.
In the case of `CN(C)CCN(Cc1cccs1)c1ccccn1` [Methapyrilene hydrochloride], the “mean cytoplasmic OPP incorporation” value was found to be 96.8.
On to `CNC(=O)c1cc2c(cn1)[nH]c1ccccc12`, for which the “mean cytoplasmic OPP incorporation” value amounted to 99.
For the compound `Cc1cc(=O)oc2cc(O)ccc12` [Hymecromone], the “mean cytoplasmic OPP incorporation” value was determined as 98.3.
In the case of `CCOC(=O)c1ccc(OC(=O)CCCCCNC(=N)N)cc1` [Gabexate mesylate], the “mean cytoplasmic OPP incorporation” value was 95.4.
Next, `CCOC(=O)c1ccc(OC(=O)CCCCCNC(=N)N)cc1` [Gabexate mesilate]: 105.
As to `CSc1nc(NC2CCCC2)c([N+](=O)[O-])c(NC2CCCC2)n1`, the “mean cytoplasmic OPP incorporation” value was determined as 101.
The value for `CCCN[C@H]1CCc2nc(N)sc2C1` [Pramipexole] was 109; that for `CC(C)(C)Cn1c(N)nc2ccc(-c3[nH]c(C(C)(C)C)nc3-c3ccc(F)cc3)nc21` was 106.
Turning to `CC(=O)c1ccc(S(=O)(=O)NC(=O)NC2CCCCC2)cc1` [Acetohexamide], the “mean cytoplasmic OPP incorporation” value turned out to be 106.
Next, `CCSC(=N)N` [EIT hydrobromide]: 93; `CCCCC[C@H](O)/C=C/[C@@H]1[C@@H](C/C=C\CCCC(=O)O)[C@@H](O)C[C@H]1O` [Dinoprost trometamol]: 97.5.
For the compound `CC(COc1ccccc1)N(CCCl)Cc1ccccc1` (stereo not given) [Phenoxybenzamine hydrochloride], the “mean cytoplasmic OPP incorporation” value is 98.
With `Nc1ncn([C@@H]2O[C@H](CO)[C@@H](O)[C@H]2O)c(=O)n1` [Azacitidine (Vidaza)], the “mean cytoplasmic OPP incorporation” value was 116.
For the compound `COc1ccc(CN(CCN(C)C)c2ccccn2)cc1` [Pyrilamine maleate], the “mean cytoplasmic OPP incorporation” value stood at 97.6.
The value for `COc1ccc(CN(CCN(C)C)c2ccccn2)cc1` [Mepyramine maleate] was 96.1; that for `CCCNC(C)C(=O)Nc1ccccc1C` (stereo not given) [Prilocaine hydrochloride] was 96.5; that for `O=C(Nc1ccc(OC(F)(F)F)cc1)c1sccc1NCc1ccnc2ccccc12` was 116.
The value for `COc1cc(/C=C/C(=O)N2CCN(CC(=O)N3CCCC3)CC2)cc(OC)c1OC` [Cinepazide maleate] was 104; that for `CC(C)(C)c1[nH]cnc1/C=c1\[nH]c(=O)/c(=C/c2ccccc2)[nH]c1=O` [NPI-2358 (Plinabulin)] was 114; that for `Cc1scc2c1N(C(=O)CN1CCN(C)CC1)c1ccccc1NC2=O` [Telenzepine dihydrochloride] was 98.4 ± 5.2.
Next, `c1ccc(C2CN3CCSC3=N2)cc1` (stereo not given) [Tetramisole HCl]: 103.
Consider `c1ccc(C2CN3CCSC3=N2)cc1` (stereo not given) [Tetramisole hydrochloride], for which the “mean cytoplasmic OPP incorporation” value amounted to 99.7.
For `C=C1c2cccc(O)c2C(=O)C2=C(O)[C@]3(O)C(=O)C(C(N)=O)=C(O)[C@@H](N(C)C)[C@@H]3[C@@H](O)[C@H]12` [Methacycline hydrochloride], the “mean cytoplasmic OPP incorporation” value is 110.
Regarding `Cn1c(=O)c2nc[nH]c2n(C)c1=O` [Theophylline monohydrate], the “mean cytoplasmic OPP incorporation” value is 101.
Take `CC(C)(C)NC[C@H](O)COc1nsnc1N1CCOCC1` [Timolol maleate salt]: the “mean cytoplasmic OPP incorporation” value amounted to 103.
Regarding `CC(C)(C)NC[C@H](O)COc1nsnc1N1CCOCC1` [(S)-Timolol maleate], the “mean cytoplasmic OPP incorporation” value amounted to 99.3.
As to `Cc1ccc(C(=O)Nc2ccc(CN3CCN(C)CC3)c(C(F)(F)F)c2)cc1C#Cc1cnc2cccnn12`, the “mean cytoplasmic OPP incorporation” value was 32.7.
Turning to `O=C(Nc1cccc2c(=O)cc(-c3nnn[nH]3)oc12)c1ccc(OCCCCc2ccccc2)cc1` [Pranlukast], the “mean cytoplasmic OPP incorporation” value was 99.4 ± 5.9.
As to `NCCCC[C@H](N[C@@H](CCc1ccccc1)C(=O)O)C(=O)N1CCC[C@H]1C(=O)O` [Lisinopril], the “mean cytoplasmic OPP incorporation” value came out at 97.9 ± 5.7.
As to `CC(C)[C@H]1C(=O)N[C@@H](CCCNC(=N)N)C(=O)NCC(=O)N[C@@H](CC(=O)O)C(=O)N[C@H](Cc2ccccc2)C(=O)N1C`, the “mean cytoplasmic OPP incorporation” value was 104.
Next, `O=C(c1cccc(Cl)c1F)N1CCN(Cc2cccc(Nc3nccs3)n2)CC1`: 121; `NC(=O)CC[C@@H](N)C(=O)O` [D-glutamine]: 96.9.
Take `COc1cccc(NC(=O)/C=C/c2ccc(Cl)cc2)c1`: the “mean cytoplasmic OPP incorporation” value was found to be 102.
For `CCOC(=O)OC(C)OC(=O)[C@@H]1N2C(=O)[C@@H](NC(=O)[C@H](N)c3ccccc3)[C@H]2SC1(C)C` (stereo not given in full) [Bacampicillin hydrochloride], the “mean cytoplasmic OPP incorporation” value came out at 92.6.
Consider `COC1=C(OC)C(=O)C(CCCCCCCCCCO)=C(C)C1=O` [Idebenone], for which the “mean cytoplasmic OPP incorporation” value was found to be 101 ± 8.
The value for `O=C(Nc1c[nH]nc1-c1nc2ccc(CN3CCOCC3)cc2[nH]1)NC1CC1` was 65.1; that for `CCOC(=O)[C@H](CCc1ccccc1)N[C@H]1CCc2ccccc2N(CC(=O)O)C1=O` [Benazepril hydrochloride] was 97.9.
For `CCOC(=O)[C@H](CCc1ccccc1)N[C@H]1CCc2ccccc2N(CC(=O)O)C1=O` [Benazepril HCl], the “mean cytoplasmic OPP incorporation” value is 82.7.
Next, `O=c1oc(-c2ccc(C(F)(F)F)cc2)nn1Cc1cc(Cl)ccc1O`: 105; `CN1CCCC(n2nc(Cc3ccc(Cl)cc3)c3ccccc3c2=O)CC1` (stereo not given) [Azelastine HCl]: 111; `CC1=CC(=O)NS(=O)(=O)O1` [Acesulfame Potassium]: 107.
Take `CN(C)CCC[C@@]1(c2ccc(F)cc2)OCc2cc(C#N)ccc21` [Escitalopram]: the “mean cytoplasmic OPP incorporation” value is 101.
On to `CCCC(=O)Nc1ncnc2c1ncn2[C@@H]1O[C@@H]2COP(=O)(O)O[C@H]2[C@H]1OC(=O)CCC` [Dibutyryl-cAMP, sodium salt], for which the “mean cytoplasmic OPP incorporation” value worked out at 110.
`CCCC(=O)Nc1ncnc2c1ncn2[C@@H]1O[C@@H]2COP(=O)(O)O[C@H]2[C@H]1OC(=O)CCC` [Bucladesine sodium salt]: the “mean cytoplasmic OPP incorporation” value was 96.8.
For `Cc1c(C(=O)NC2CCCCC2)sc2nc3ccc(N)cc3n12`, the “mean cytoplasmic OPP incorporation” value came to 106.
Next, `CC(C)C[C@H](NC(=O)[C@H](CCc1ccccc1)NC(=O)CN1CCOCC1)C(=O)N[C@@H](Cc1ccccc1)C(=O)N[C@@H](CC(C)C)C(=O)[C@@]1(C)CO1` [Carfilzomib (PR-171)]: 63.9.
`O=S(=O)(c1ccccc1)c1cnc2c(N3CCNCC3)cccc2c1`: the “mean cytoplasmic OPP incorporation” value turned out to be 108.
